Hit rate of the full screen: of about 350,000 compounds, about 9,900 (2.8%) were called active. This list was built around the results that the source calls inconclusive (neither active nor inactive); the mix of calls is not that of the screen. Calls follow the shape of the dose curve; as a rule, active = well fitted activation curve with a large enough effect; inconclusive = small, poorly fitted or top-dose-only effect; inactive = no such curve, though single readings can be large or run the other way. No potency is given beside an inconclusive call; the fits are too rough.
experiment: A quantitative high throughput screen for small molecules that induce DNA re-replication in MCF 10a normal breast cells.; also: nearly all actives have a fitted effect of over 50% in size; as to activity, positive = re-replication: % of control where 0% means no effect; details: MCF 10A DNA re-replication, Hoechst nuclear intensity, 48 h; activity, positive = re-replication: at 46.1 µM (top of the series)
Potency is read from the fitted curve at half-maximal effect; tags tell the direction and shape of the fitted curve.

SMILES	Potency	activity, positive = re-replication
Cc1oc2c(CN3CCCC3)c(O)ccc2c(=O)c1-c1ccc(Cl)cc1	inconclusive [activator, full curve, poor fit]	
CCOC(=O)C1C(C)N=C2SCC(=O)N2C1c1cccc(Br)c1 (configuration not stated)	inconclusive [activator, single point]	
COc1cc(/C=C/c2cc(C(F)(F)F)[nH]c(=O)n2)cc(OC)c1OC	inconclusive [activator, partial curve, poor fit]	
CCOCCCNC(=S)N1CCCN(c2nc3cc(C)cc(C)c3cc2C#N)CC1	inconclusive [activator, single point]	
CN(C)/C=C/C(=O)c1ccc(Br)s1	inconclusive [activator, partial curve, poor fit]	
CN(c1ccccc1)S(=O)(=O)c1ccc(C(=O)NNC(=O)c2ccccc2)cc1		inactive: -0.793%
O=S(=O)(Cc1ccc(Cl)cc1)N1CCCC1	inconclusive [activator, full curve, poor fit]	
C=CCn1c(SCC(=O)N(CCC)C2CCS(=O)(=O)C2)nnc1-c1ccccc1OC (configuration not stated)		inactive: 0.181%
Cc1ccc(-c2csc(N(Cc3ccco3)C(=O)c3cccs3)n2)cc1	inconclusive [activator, partial curve]	
Nn1c(SCC(=O)Nc2ccccc2F)nc2ccccc2c1=O	inconclusive [activator, single point]	
COc1ccc(NC(=O)CSC2CC(=O)N(c3ccc4c(c3)OCCO4)C2=O)cc1 (configuration not stated)		inactive: -0.284%
Cc1cccc(C(=O)NNC2=C(C(=O)C(F)(F)F)CCC2)c1O	inconclusive [activator, single point]	
CCOc1ccc(C2Nc3ccccc3C(CC)(CC)O2)cc1 (configuration not stated)	inconclusive [activator, partial curve, poor fit]	
Cn1c(=O)c2c(nc(SCCN3CCCCC3)n2Cc2ccc(Cl)cc2)n(C)c1=O		inactive: 0.318%
CC(SC1=NCCN1S(=O)(=O)c1ccccc1)c1ccccc1 (configuration not stated)	inconclusive [activator, partial curve, poor fit]	
Cc1cc(/C=C(\C#N)C(=O)Nc2ccc(Cl)cc2)c(C)n1-c1ccc(N2CCOCC2)c([N+](=O)[O-])c1		inactive: 14.5%
COC(=O)/C(=C/c1ccc2c(c1)c1ccccc1n2C)NC(=O)c1ccccc1	inconclusive [activator, single point]	
O=C(COC(=O)CNC(=O)c1ccc(Cl)c([N+](=O)[O-])c1)NNC(=O)c1ccccc1F		inactive: -1.85%
NC1=NC[C@H](Cc2ccc(O)cc2)N1CCCCC1CCCCC1	inconclusive [activator, partial curve, poor fit]	
CN(CC(=O)Nc1ccccc1Br)C(=O)c1cc([N+](=O)[O-])ccc1N1CCOCC1		inactive: -3.56%
CCC[C@H]1CC(=O)C=C(c2ccc(OC)cc2)ON1C(=O)OC(C)(C)C	inconclusive [activator, partial curve, poor fit]	
O=C(CSc1nnc(-c2cnccn2)n1Cc1ccco1)c1ccc(Cl)cc1	inconclusive [activator, single point]	
NC(=O)C1CCN(C(=O)CCn2c(=O)oc3ccccc32)CC1		inactive: 10.8%
C[C@@]12C(=O)Nc3ccccc3C(=O)N1[C@H]1c3cc(Br)ccc3OC[C@@H]1[C@@H]2c1ccccc1	active: 3.26 µM	

SMILES	Potency	activity, positive = re-replication
Cc1ccc(NC(=O)CN(C)C(=O)Cc2ccc(Cl)cc2Cl)cc1	inconclusive [activator, single point]	
COc1cc(C(=S)N2CCCC2)cc(OC)c1OC	active: 3.66 µM	
O=C(O)c1ccccc1OC(C(=O)Nc1cc(Cl)cc(Cl)c1)c1ccccc1 (configuration not stated)	active: 20.6 µM	
CN(Cc1ccccc1)S(=O)(=O)c1cccc2nsnc12	inconclusive [activator, single point]	
COc1cccc(CN(C)C(=O)c2ccc(NC(=O)CC3SC(N4CCCCC4)=NC3=O)cc2)c1OC (configuration not stated)	inconclusive [activator, single point]	
O=C(Nc1ccccn1)c1cccc(S(=O)(=O)N2CCc3ccccc3C2)c1		inconclusive: 56.8% [activator]
COc1cccc(Cn2c(=O)sc3ccccc3c2=O)c1		inactive: 6.1%
Cc1ccc(-c2csc(N3CCC[C@@H]3C(=O)NCCn3c(C(F)(F)F)nc4ccccc43)n2)cc1	inconclusive [activator, single point]	
CCOc1ccccc1NC(=O)c1nc(S(=O)(=O)Cc2ccccc2)ncc1Cl	active: 4.11 µM	
O=c1c2sccc2n(Cc2ccc(F)cc2)c(=O)n1-c1ccc(F)cc1		inactive: -63.6%
CCOC(=O)c1sc(N)nc1C(F)(F)F		inactive: -44.2%
CC(C)(C)c1ccc(S(=O)(=O)Nc2ccc(C(=O)N3CCCC3)cc2)cc1		inactive: 4.09%
Cc1oc(-c2ccc3c(c2)OCCO3)cc1C(=O)NC(Cc1ccccc1)C(=O)O (configuration not stated)		inactive: -2.49%
Cc1c(C(=O)N2CC(C)OC(C)C2)[nH]c2ccc(Br)cc12 (configuration not stated)		inactive: 7.74%
Cc1ccc2c(c1)c(-c1ccccc1)nc1nnnn12		inactive: 0.338%
CN(C)CCOC(C)(c1ccccc1)c1ccccn1 (configuration not stated)	inconclusive [activator, partial curve, poor fit]	
Cc1cc(C)n(-c2nnc3n2N=C(c2c[nH]c4ccccc24)CS3)n1	inconclusive [activator, single point]	
CC1CCC(C(C)C)C(OCC(O)CNC(C)c2ccccc2)C1 (configuration not stated)	active: 16.4 µM	
CC(=O)N=c1sccn1CC(O)c1ccccc1 (configuration not stated)		inactive: 11.3%
CCc1cccc(NS(=O)(=O)c2csc(C(N)=O)c2)c1	inconclusive [activator, single point]	
Cc1nnc(SCC(=O)Nc2ccc(-c3nc4ccccc4s3)cc2)s1	inconclusive [activator, partial curve, poor fit]	
CSC1=C(C#N)C(c2sccc2C)CC(=O)N1 (configuration not stated)		inactive: -19.9%
CCC(C)Sc1ccc(-c2nc3cnccn3c2NC2CCCCC2)cc1 (configuration not stated)	inconclusive [activator, single point]	

— PubChem BioAssay AID624296 (National Center for Advancing Translational Sciences (NCATS), 2012)
